Experimental findings from article PMC10048706 are described below.

Amino acid sequences for entries named in this document (tags omitted). A change or cut given only in a name is not applied to a line headed by its entry.
UniProt Q13435: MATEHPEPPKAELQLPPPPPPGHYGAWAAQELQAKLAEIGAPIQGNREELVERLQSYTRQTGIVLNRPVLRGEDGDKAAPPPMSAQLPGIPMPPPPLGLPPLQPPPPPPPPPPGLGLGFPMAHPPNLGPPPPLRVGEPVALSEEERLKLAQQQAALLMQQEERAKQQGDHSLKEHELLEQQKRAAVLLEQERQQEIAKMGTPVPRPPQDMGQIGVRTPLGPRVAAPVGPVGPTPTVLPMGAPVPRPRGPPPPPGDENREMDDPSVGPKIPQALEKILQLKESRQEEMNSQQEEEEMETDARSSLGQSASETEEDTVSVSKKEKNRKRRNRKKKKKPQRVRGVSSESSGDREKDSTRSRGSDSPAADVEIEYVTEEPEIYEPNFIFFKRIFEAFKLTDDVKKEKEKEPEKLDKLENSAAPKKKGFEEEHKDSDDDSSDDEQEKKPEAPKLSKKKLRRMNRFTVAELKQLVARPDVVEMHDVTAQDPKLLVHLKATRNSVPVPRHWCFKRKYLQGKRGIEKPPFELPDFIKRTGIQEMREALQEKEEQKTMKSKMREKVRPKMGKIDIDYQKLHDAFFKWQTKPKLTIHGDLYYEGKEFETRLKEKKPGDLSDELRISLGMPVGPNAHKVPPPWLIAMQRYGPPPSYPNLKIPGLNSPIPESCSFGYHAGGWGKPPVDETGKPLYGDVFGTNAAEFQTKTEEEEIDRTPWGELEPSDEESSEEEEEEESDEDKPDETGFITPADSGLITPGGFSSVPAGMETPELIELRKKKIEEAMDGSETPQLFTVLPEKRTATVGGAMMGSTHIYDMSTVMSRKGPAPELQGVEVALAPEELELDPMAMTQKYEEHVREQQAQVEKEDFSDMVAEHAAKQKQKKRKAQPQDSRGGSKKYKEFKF

These are yes or no findings as the source states them, for the method shown. In cells and extracts the contact can be indirect. Some results given as binding are weak or reduced against the parent protein; the word gives no strength. For some of these results: Where a sequence is shown, tags or fusion partners need not be part of it.

Assay [1] has as its target T1, full-length glutathione S-transferase (GST)-FRA10AC1 chimeric protein (human) (UniProt Q70Z53).
T1 sequence: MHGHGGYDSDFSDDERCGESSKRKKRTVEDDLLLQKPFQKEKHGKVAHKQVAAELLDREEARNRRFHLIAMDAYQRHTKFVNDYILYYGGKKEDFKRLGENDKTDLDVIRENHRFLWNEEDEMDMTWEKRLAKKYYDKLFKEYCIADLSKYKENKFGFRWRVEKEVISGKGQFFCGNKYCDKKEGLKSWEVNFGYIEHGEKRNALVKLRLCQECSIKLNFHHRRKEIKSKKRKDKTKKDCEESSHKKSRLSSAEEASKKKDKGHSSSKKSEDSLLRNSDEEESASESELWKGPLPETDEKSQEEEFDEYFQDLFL
Nature of the assay: pull-down; GST-FRA10AC1 on glutathione-Sepharose beads incubated with in vitro translated [35S]-methionine-labelled protein; 50 mM Tris-HCl pH 8.0, 100 mM NaCl, 1 mM EDTA, 0.1% Nonidet P-40, overnight at 4 °C; autoradiography; only the target purified.

The target in assay [2] is T2, endogenous FRA10AC1 protein of HeLa cells (human (endogenous in HeLa)) (UniProt Q70Z53).
T2 sequence: T1 sequence
The experiment in a line: co-IP; endogenous proteins of HeLa cell extract; IP with 1 ug affinity-purified home-made anti-FRA10AC1 or anti-ESS2, or with anti-SF3B2; Western blot.

The target of assay [3] is T3, GST-ESS2 (aa: 25-472) (human) (UniProt Q96DF8).
T3 sequence: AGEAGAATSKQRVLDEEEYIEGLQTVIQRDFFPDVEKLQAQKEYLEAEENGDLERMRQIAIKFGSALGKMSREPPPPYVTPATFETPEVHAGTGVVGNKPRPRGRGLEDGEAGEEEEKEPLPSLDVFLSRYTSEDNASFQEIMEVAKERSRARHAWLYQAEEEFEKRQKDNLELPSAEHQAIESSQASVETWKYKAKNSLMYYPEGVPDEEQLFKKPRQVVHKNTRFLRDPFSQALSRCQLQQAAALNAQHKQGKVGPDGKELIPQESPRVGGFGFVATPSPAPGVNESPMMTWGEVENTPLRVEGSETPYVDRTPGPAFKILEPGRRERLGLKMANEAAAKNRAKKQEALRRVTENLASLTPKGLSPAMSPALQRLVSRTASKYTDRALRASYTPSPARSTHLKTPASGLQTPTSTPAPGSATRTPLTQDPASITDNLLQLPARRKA
The experiment in a line: pull-down; ~2 ug GST-ESS2 fragment on glutathione-Sepharose beads in RIPA buffer with protein extracts of transiently transfected HeLa cells expressing FRA10AC1-EGFP fragments, overnight at 4 °C; Western blot with anti-GFP; only the target purified.

Assay [4] has as its target T4, endogenous ESS2 protein of HeLa cells (human (endogenous in HeLa)) (UniProt Q96DF8).
T4 sequence: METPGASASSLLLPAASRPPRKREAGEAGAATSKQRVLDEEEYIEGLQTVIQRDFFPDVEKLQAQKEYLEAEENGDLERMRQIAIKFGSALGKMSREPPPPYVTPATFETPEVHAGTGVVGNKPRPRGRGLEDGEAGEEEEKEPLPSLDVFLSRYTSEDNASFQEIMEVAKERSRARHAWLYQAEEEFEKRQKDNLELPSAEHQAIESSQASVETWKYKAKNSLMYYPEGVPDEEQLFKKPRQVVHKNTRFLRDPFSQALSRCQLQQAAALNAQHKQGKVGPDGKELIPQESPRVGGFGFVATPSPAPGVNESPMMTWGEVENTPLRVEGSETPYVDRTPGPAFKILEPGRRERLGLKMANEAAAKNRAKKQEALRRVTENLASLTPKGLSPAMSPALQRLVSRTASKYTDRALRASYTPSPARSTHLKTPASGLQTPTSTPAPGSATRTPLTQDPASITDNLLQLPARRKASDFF
Nature of the assay: co-IP; endogenous proteins of HeLa cell extract; IP with 1 ug affinity-purified home-made anti-FRA10AC1 or anti-ESS2, or with anti-SF3B2; Western blot. (Immunoblotting shows a protein as a band on a membrane.)

Assay [5] addresses T5, GST-ESS2 (aa 294-472) (human) (UniProt Q96DF8).
T5 sequence: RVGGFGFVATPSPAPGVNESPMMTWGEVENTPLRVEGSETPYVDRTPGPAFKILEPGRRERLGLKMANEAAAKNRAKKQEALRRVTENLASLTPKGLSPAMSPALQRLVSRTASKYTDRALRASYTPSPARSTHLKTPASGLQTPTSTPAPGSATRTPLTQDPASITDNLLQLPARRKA
Nature of the assay: pull-down; ~2 ug GST-ESS2 fragment on glutathione-Sepharose beads in RIPA buffer (50 mM Tris-HCl pH 8.0, 50 mM NaCl, 0.5% Nonidet P-40, 0.1% SDS) with ~1.5 mg total HeLa lysate, overnight at 4 °C; Western blot with anti-FRA10AC1; only the target purified.

As to “in vitro translated [35S]-methionine-labelled SF3B2 (amino acids 154-813) (from UniProt Q13435 154-813) (domain or fragment)”, the binding entry in assay [1] is on record as “binds”.
On to “endogenous SF3B2 protein of HeLa cells (from UniProt Q13435 1-895)”, for which the binding result in assay [2] is reported as “no binding”.

B1: FRA10AC1-EGFP fragment, amino acids 96-253 (domain or fragment, UniProt Q70Z53 96-253)
chain: KRLGENDKTDLDVIRENHRFLWNEEDEMDMTWEKRLAKKYYDKLFKEYCIADLSKYKENKFGFRWRVEKEVISGKGQFFCGNKYCDKKEGLKSWEVNFGYIEHGEKRNALVKLRLCQECSIKLNFHHRRKEIKSKKRKDKTKKDCEESSHKKSRLSSA
For the molecule B1, the binding entry in assay [3] is reported as “binds”.

B2: endogenous FRA10AC1 protein of HeLa cells (protein, UniProt Q70Z53 1-315)
chain: T1 sequence
As to B2, the binding entry in assay [4] and in assay [5] was “binds” each time.

B3: in vitro translated [35S]-methionine-labelled ESS2 (amino acids 25-472) (domain or fragment, UniProt Q96DF8 25-472)
chain: T3 sequence
modifications: [35S] methionine label
As to B3, the binding result in assay [1] is “binds”.

B4: endogenous ESS2 protein of HeLa cells (protein, UniProt Q96DF8 1-476)
chain: T4 sequence
Regarding B4, the binding result in assay [2] is recorded as “binds”.
